Experimental data published in the supplement of paper PMC10126150.
Values marked as one replicate rest on one cluster of the flow cell; about a third of the high ones do not repeat.

Tested on: ATP
Assay: switch fluorescence ratio, 500 uM ATP over buffer (Cy3 cluster intensity, sum of 5 cycles each) (fold (ratio)); higher = stronger signal-on switching upon ATP binding; sequences stand for … in TCGTCGGCAGCGTCAGATGTGTATAAGAGACAGTTTTTTTTTTTTTTTTTTTTTTTTT…TC
Conditions: aptamer strand: ATP DNA aptamer (quencher-CACCTGGGGGAGTATTGCGGAGGAAGG + anchor), 100 nM annealed; ATP concentration: 500 uM; one replicate
How it was run: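 The fluorescence ratio divides summed target-cycle Cy3 intensity by summed buffer-cycle Cy3 intensity for each cluster and is averaged per switch-domain sequence. Cy3-labelled switching-strand clusters on a modified Illumina MiSeq flow-cell were annealed to 100 nM quencher-labelled ATP aptamer, then imaged in selection buffer and again after 15 min with 500 uM ATP at 22 °C. Five such cycles were run, with NaOH stripping and re-annealing between them, and clusters outside 100-1000 RFU were excluded.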
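Further: ATP exposure 15 min at 22 °C before imaging.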

Row | Sequence | switch fluorescence ratio
1 | ACCGACATGG | 1.04
2 | AGGTCTTGCT | 0.941
3 | TGCATCTGAA | 1
4 | TGAAAGAAGA | 0.967
5 | TTGTGGTGGA | 1.07
6 | AGTCCTATT | 0.968
7 | ATAGAATCGG | 0.971
8 | CTATGCTGA | 1
9 | GAAATAGCCG | 1.03
10 | TTGAATCAC | 1.02
11 | CCCAGCGTAT | 1.4
12 | GACAGGTCTC | 0.983
13 | GCATTCACGG | 1.13
14 | CACGTTCACT | 1.51
15 | TAACTCCGTT | 1.06
16 | CTATCGCTGT | 1.15
17 | GCCCGAGCAT | 1.22
18 | CATGGAACGC | 1.06
19 | GGCATATTTG | 1.02
20 | GTGGTCTACG | 0.941
21 | GGCGGGGCTG | 0.988
22 | GATTCGCCGG | 0.966
23 | GCGACCACGC | 1.03
24 | GGATCAATTT | 0.993
25 | ACGCCCTATT | 1.09
26 | GGGTTACACT | 1.05

Row | Sequence | switch fluorescence ratio
27 | AATAACTGGG | 1.08
28 | AGTGTCTTGG | 1
29 | GCTAAATTAC | 1.58
30 | CGGGTTGCCA | 0.995
31 | GAAGCAAAAA | 2.8
32 | TGGGTTGCAC | 1.01
33 | TTCACCGTGC | 1.34
34 | GCAGGTATGA | 1.03
35 | GAGCCAGTGA | 1
36 | CACTGAGGTA | 0.985
37 | ATGTGTACTT | 1.01
38 | ACAAGAGCAT | 0.996
39 | AATTTAGTT | 1.02
40 | GTACATAAGG | 1.02
41 | TTGCAGTTGA | 1.06
42 | TAAGCTCAAC | 1.03
43 | TATTTTTATG | 0.963
44 | ACACGTTGGT | 1.01
45 | TGGTCCTAGC | 1.03
46 | GGTCTTTCTT | 0.987
47 | TTTGTTAATC | 0.969
48 | ATTGAGGTAT | 0.992
49 | CGGGCAGAGT | 1.03
50 | GCTTTTCATA | 0.995
51 | CATGTATC | 1.03
52 | CGCCCGTCTG | 1.04

Row | Sequence | switch fluorescence ratio
53 | TCAGTTTCGT | 0.965
54 | CAAGTTGAA | 1.03
55 | CCCAACGTCC | 1.11
56 | GGTCCAGTCA | 1.01
57 | AAAACCGATG | 1.03
58 | GATCTGTGCC | 0.939
59 | AGACGTTGCT | 0.991
60 | CAAGCGTGGG | 0.934
61 | TTCGTCCTTT | 0.997
62 | CCAAGTTTTA | 1.03
63 | TCGTATACT | 1.62
64 | AGACCGCAGC | 2.2
65 | CTGATGACAA | 1.09
66 | TCTGGCTACA | 1.01
67 | AACTCGGGTG | 1.18
68 | GGCGCGGCGC | 0.981
69 | CGGGTCGTTC | 0.987
70 | CATGGGGATG | 0.96
71 | CTGATTCTTG | 0.993
72 | GTGTTCACGG | 0.984
73 | ACGCTGATCA | 1.01
74 | CCTCGATAGT | 1.28
75 | CTCGTTCAGC | 1.02
76 | AGGCGCCAGT | 1.02
77 | TTTAGTGATA | 1.01
78 | ATCTTTACAA | 1

Row | Sequence | switch fluorescence ratio
79 | ATCGTTTGA | 0.971
80 | TAGAGACTGC | 0.892
81 | ACGAAAATGT | 1.15
82 | TAATGGGAGT | 0.993
83 | CCATTTTGGC | 1.02
84 | CTTGAGTTCA | 1.07
85 | CTAGGGCGGG | 0.988
86 | TACTGGGATC | 1
87 | GCAGGACGCC | 1.29
88 | GAGTGTCCCT | 0.972
89 | GGTTTCTTAC | 1.05
90 | TGGTATGGGA | 0.954
91 | TTGTTTGTTA | 0.972
92 | AACATACACG | 1.38
93 | TTGTCTCATG | 0.981
94 | GGATTCAAG | 0.964
95 | TGTCATGT | 0.986
96 | TTTGAAACGG | 0.996
97 | TACCAATAAT | 1.03
98 | GAATAAATGT | 0.988
99 | TGGGTGGCTT | 0.962
100 | TACCCGTTTT | 1.05
101 | GAGGTATGA | 1.01
102 | ATTCCTTCGA | 1.47
103 | TTCGGCGGCG | 1.05
104 | CCGGGAGGGT | 1.04

Row | Sequence | switch fluorescence ratio
105 | ATCGTAGAT | 0.979
106 | GCCGGTGTTG | 0.983
107 | ACTGAAGTGA | 1.02
108 | CTCTTATTGT | 0.988
109 | GTGTCATACT | 1
110 | GGAATCGTCT | 1.14
111 | GAATGGCGAC | 0.976
112 | TCTAGGCAG | 0.99
113 | CGAAGGGGAG | 0.984
114 | ATAAATAA | 0.998
115 | AAGGCCTGCG | 1.02
116 | CAAGGCCAAC | 0.975
117 | ACCTGGCTGT | 1.05
118 | ACACCTGGTG | 1.37
119 | CGCCTTATCA | 1.14
120 | GTAGATGGTT | 0.989
121 | TGCCCTCCGA | 2.1
122 | TGCGTTTTGA | 0.951
123 | CATCTTTTTG | 1
124 | CGGCTCGGCG | 0.951
125 | GGTCGTTATG | 0.997
126 | GACCTGTGAC | 1.05
127 | ATTGCAGGG | 0.936
128 | GCGCCCCATT | 1.06
129 | TACTGTTCAT | 0.983
130 | AAAATAGTCA | 1.02

Row | Sequence | switch fluorescence ratio
131 | ATACATCGCG | 1.07
132 | AATAGGCCCG | 0.973
133 | TTGTCTCACA | 0.989
134 | ACGATTATGG | 1.06
135 | TAAGCAGTGC | 1.43
136 | GGCACACGAA | 1.01
137 | CTGGTTGGGC | 1
138 | TATATTCGT | 1.01
139 | CAGGGTGTGA | 0.98
140 | GCGGAATGTG | 0.994
141 | TATAAGAGAT | 1.07
142 | ATCCCGGGGT | 1.04
143 | CTATTTCTT | 1.04
144 | ACAGGATGAA | 1.01
145 | GTTATTGGAA | 0.985
146 | AGTCAGTC | 1.04
147 | GTTGAAGGTG | 1.46
148 | GATTGCTTGG | 1
149 | AATTTGGGAC | 0.977
150 | CCTTAATTT | 1.02
151 | ATTCACAGCC | 0.998
152 | GGGCTAGCAA | 1.22
153 | TGTTTTTGCA | 1.05
154 | GGTGTCGCGG | 0.996
